# Test results from article PMC6713926, “Structural Basis for Properdin Oligomerization and Convertase Stimulation in the Human Complement System” (Frontiers in Immunology, 2019).
# B1: Recombinant FB D279G, S699A (enzyme, human, UniProt P00751 26-764, looked up)
# chain: TPWSLARPQGSCSLEGVEIKGGSFRLLQEGQALEYVCPSGFYPYPVQTRTCRSTGSWSTLKTQDQKTVRKAECRAIHCPRPHDFENGEYWPRSPYYNVSDEISFHCYDGYTLRGSANRTCQVNGRWSGQTAICDNGAGYCSNPGIPIGTRKVGSQYRLEDSVTYHCSRGLTLRGSQRRTCQEGGSWSGTEPSCQDSFMYDTPQEVAEAFLSSLTETIEGVDAEDGHGPGEQQKRKIVLDPSGSMNIYLVLDGSGSIGASNFTGAKKCLVNLIEKVASYGVKPRYGLVTYATYPKIWVKVSEADSSNADWVTKQLNEINYEDHKLKSGTNTKKALQAVYSMMSWPDDVPPEGWNRTRHVIILMTDGLHNMGGDPITVIDEIRDLLYIGKDRKNPREDYLDVYVFGVGPLVNQVNINALASKKDNEQHVFKVKDMENLEDVFYQMIDESQSLSLCGMVWEHRKGTDYHKQPWQAKISVIRPSKGHESCMGAVVSEYFVLTAAHCFTVDDKEHSIKVSVGGEKRDLEIEVVLFHPNYNINGKKEAGIPEFYDYDVALIKLKNKLKYGQTIRPICLPCTEGTTRALRLPPTTTCQQQKEELLPAQDIKALFVSEEEKKLTRKEVYIKNGDKKGSCERDAQYAPGYDKVKDISEVVTPRFLCTGGVSPYADPNTCRGDAGGPLIVHKRSRFIQVGVISWGVVDVCKNQKRQKQVPAHARDFHINLFQVLPWLKEKLQDEDLGFL
# notes: complement factor B (FB), human; also called FB KLK; 348-KLK-350
# B2: WT FP, recombinant oligomeric properdin (natural protein, human, UniProt P27918 28-469, looked up)
# chain: DPVLCFTQYEESSGKCKGLLGGGVSVEDCCLNTAFAYQKRSGGLCQPCRSPRWSLWSTWAPCSVTCSEGSQLRYRRCVGWNGQCSGKVAPGTLEWQLQACEDQQCCPEMGGWSGWGPWEPCSVTCSKGTRTRRRACNHPAPKCGGHCPGQAQESEACDTQQVCPTHGAWATWGPWTPCSASCHGGPHEPKETRSRKCSAPEPSQKPPGKPCPGLAYEQRRCTGLPPCPVAGGWGPWGPVSPCPVTCGLGQTMEQRTCNHPVPQHGGPFCAGDATRTHICNTAVPCPVDGEWDSWGEWSPCIRRNMKSISCQEIPGQQSRGRTCRGRKFDGHRCAGQQQDIRHCYSIQHCPLKGSWSEWSTWGLCMPPCGPNPTRARQRLCTPLLPKYPPTVSMVEGQGEKNVTFWGRPLPRCEELQGQKLVVEEKRPCLHVPACKDPEEEEL
# notes: properdin (FP), human, wild type; Secreted oligomers; preparations of ~50% dimer and 50% trimer, and of ~90% dimer and 10% trimer, were used; also called oligomeric FP; dimeric FP; source: also in cell supernatant
# B3: FP E244A (natural protein, human, UniProt P27918 28-469, looked up)
# chain: B2 chain with E217A
# notes: properdin (FP), human
# B4: FP E244Q (natural protein, human, UniProt P27918 28-469, looked up)
# chain: B2 chain with E217Q
# notes: properdin (FP), human
# What was measured:
# Biotinylated C3b = molecular target: T1, Biotinylated C3b (human, UniProt P01024 23-667; P01024 partial chain, biotin (Maleimide-PEG2-Biotin)); test: BLI; biotinylated C3b on streptavidin sensors; FB variants at 40 μg/mL; 20 mM MES pH 6.0, 100 mM NaCl, 0.05% Tween, 1 mg/mL BSA, 5 mM MgCl2; conditions: both partners purified
# T1 construct: complement C3, human, beta chain; complement C3, human, alpha' chain of C3b; also called biotin-C3b; immobilized C3b; source: made from plasma C3 by trypsin cleavage in the presence of Maleimide-PEG2-Biotin, purified by cation exchange
# C3b = molecular target: T2, C3b (human, UniProt P01024 23-667; P01024 partial chain); test: BLI; miniFH amine-coupled on AR2G sensors; FP (94 nM), C3b (280 nM) or a mixture of both; 30°C; PBS, 1 mg/mL BSA, 0.05% Tween 20; FP ~90% dimer and 10% trimer; conditions: both partners purified
# T2 construct: complement C3, human, beta chain; complement C3, human, alpha' chain of C3b, ends at Asn1663; also called C3b fragment
# [1] = molecular target: the molecule itself; test: SEC; FP variants eluted from hFPNb1/Ni-NTA beads run on Superdex200 increase in 20 mM HEPES, 150 mM NaCl, pH 7.5; fractions analysed by western blot with anti-FP
# Chain of C3b (P01024 23-667, chain 1 of 2): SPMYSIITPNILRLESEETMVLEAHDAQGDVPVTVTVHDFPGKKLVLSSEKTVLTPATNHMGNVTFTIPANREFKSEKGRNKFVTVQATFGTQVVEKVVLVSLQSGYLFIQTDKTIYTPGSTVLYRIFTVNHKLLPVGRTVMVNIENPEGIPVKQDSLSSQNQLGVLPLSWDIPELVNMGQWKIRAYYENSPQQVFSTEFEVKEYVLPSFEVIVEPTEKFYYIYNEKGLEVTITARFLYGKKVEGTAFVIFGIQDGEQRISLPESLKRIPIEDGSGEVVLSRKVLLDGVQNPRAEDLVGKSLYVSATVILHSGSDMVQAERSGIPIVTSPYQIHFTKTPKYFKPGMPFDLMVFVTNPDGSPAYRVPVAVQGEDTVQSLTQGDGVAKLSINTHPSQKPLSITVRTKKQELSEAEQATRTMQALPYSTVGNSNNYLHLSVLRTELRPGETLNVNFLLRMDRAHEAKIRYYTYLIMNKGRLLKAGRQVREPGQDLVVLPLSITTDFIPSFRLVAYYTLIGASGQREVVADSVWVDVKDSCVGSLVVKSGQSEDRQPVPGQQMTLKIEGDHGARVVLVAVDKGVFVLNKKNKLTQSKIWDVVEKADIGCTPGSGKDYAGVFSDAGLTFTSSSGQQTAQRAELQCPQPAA
# Chain of C3b (P01024 749-1663, chain 2 of 2): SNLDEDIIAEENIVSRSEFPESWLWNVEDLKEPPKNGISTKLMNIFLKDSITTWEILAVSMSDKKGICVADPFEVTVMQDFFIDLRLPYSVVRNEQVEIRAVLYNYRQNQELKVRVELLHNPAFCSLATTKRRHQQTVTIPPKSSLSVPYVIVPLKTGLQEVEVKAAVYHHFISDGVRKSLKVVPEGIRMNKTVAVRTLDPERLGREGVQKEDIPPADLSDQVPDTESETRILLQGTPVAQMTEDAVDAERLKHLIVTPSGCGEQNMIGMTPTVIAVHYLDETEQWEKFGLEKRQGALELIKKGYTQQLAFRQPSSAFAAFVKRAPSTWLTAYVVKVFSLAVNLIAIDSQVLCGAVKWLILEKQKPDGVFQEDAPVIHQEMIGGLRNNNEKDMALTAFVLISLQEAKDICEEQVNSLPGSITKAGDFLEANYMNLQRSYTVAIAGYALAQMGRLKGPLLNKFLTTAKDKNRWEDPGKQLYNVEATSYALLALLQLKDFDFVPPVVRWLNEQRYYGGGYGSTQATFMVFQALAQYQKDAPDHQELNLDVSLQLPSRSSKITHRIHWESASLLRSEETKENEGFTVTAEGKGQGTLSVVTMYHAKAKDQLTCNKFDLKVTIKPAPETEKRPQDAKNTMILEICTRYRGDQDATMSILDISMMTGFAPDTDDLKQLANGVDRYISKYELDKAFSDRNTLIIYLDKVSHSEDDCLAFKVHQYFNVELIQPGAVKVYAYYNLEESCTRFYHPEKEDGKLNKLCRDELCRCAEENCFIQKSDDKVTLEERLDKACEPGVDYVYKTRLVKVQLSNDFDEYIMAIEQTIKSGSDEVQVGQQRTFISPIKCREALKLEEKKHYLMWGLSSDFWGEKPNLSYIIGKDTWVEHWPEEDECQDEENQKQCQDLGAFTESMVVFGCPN
# Chain of Biotinylated C3b (P01024 23-667, chain 1 of 2): as the sequence (P01024 23-667, chain 1 of 2) above
# Chain of Biotinylated C3b (P01024 749-1663, chain 2 of 2): as the sequence (P01024 749-1663, chain 2 of 2) above
Binder,binding result [1],other results
B1,–,binding result (Biotinylated C3b): binds
B2,–,binding result (C3b): binds
B3,binds,–
B4,binds,–

# Changes are numbered by the printed parent chain. In names and notes the source's numbering stands.
